# Laboratory results taken from PubChem BioAssay AID2147 (National Center for Advancing Translational Sciences (NCATS), 2009).
# Values joined by “and” are separate entries in the source; they are usually repeats but may differ in a detail not shown here. Identical values can stand only once. In all, about 230,000 compounds went through this assay and about 3,600 (1.6%) were called active. This list was built around the results that the source calls inconclusive (neither active nor inactive); the mix of calls is not that of the screen. Calls follow the shape of the dose curve; as a rule, active = well fitted inhibition curve with a large enough effect (not every such curve was filed as active); inconclusive = small, poorly fitted or top-dose-only effect, or another doubt; inactive = no such curve, though single readings can be large or run the other way. Where the call is inconclusive, the potency comes from a doubtful curve fit.
# Biological target: Lysine-specific demethylase 4E (Homo sapiens) (UniProt B2RXH2)
# Sequence of UniProt B2RXH2 (B2RXH2 whole entry, looked up, the tested form may be a part): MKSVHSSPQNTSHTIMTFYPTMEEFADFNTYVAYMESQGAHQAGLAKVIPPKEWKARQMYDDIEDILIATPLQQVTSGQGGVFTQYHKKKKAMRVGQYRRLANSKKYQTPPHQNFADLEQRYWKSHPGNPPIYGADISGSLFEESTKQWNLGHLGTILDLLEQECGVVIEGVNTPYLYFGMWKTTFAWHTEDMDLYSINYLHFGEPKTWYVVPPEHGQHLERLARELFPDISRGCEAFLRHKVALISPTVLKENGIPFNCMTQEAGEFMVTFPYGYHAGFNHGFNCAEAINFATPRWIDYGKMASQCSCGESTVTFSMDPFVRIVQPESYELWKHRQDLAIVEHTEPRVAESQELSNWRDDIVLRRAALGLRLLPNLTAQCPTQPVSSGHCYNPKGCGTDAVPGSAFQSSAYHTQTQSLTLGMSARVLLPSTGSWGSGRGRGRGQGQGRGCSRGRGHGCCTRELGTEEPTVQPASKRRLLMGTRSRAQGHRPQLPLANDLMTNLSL
# Assay: qHTS Assay for Inhibitors of Human Jumonji Domain Containing 2E (JMJD2E)
# Conditions: JMJD2E catalytic domain, FDH-coupled NADH fluorescence (FDH is formaldehyde dehydrogenase); series mostly up to 57.1 µM; activity change, negative = inhibition: at the top concentration
# Also: nearly all actives have a fitted effect of over 50% in size.
# 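For activity change, negative = inhibition in this document: 0% = wells with enzyme and -100% = buffer wells without enzyme.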
# Potency is read from the fitted curve at half-maximal effect; tags tell the direction and shape of the fitted curve.
SMILES,Potency,"activity change, negative = inhibition"
NCCOc1ccccc1OCCN,"inconclusive: 22.4 µM [inhibitor, partial curve, poor fit]",–
COc1ccc(NC(=O)c2cnc(C)cn2)c2ncccc12,–,inactive: 5.42%
COc1cc(/C=N/NC(=O)c2cccnc2)ccc1OCC(=O)Nc1ccccc1Cl,"inconclusive: 31.6 µM [inhibitor, single point]",–
Cc1cccc(C)c1-n1c(C)cc(/C=N\NC(=O)CC(=O)NC2CCCCC2)c1C,–,inactive: 5.82%
COC(=O)c1cc(Cl)c(NC(=O)c2ccc(C(C)(C)C)cc2)cc1OC,"inconclusive: 31.6 µM [inhibitor, single point]",–
COc1cccc([C@@H]2Oc3ccc(Br)cc3C(=O)[C@H]2OC(=O)NCc2ccco2)c1,–,inactive: 5.06%
Cc1ccc2nc3c(cc(C(=O)NCc4cccnc4)c(=N)n3C(C)C)c(=O)n2c1,"inconclusive: 3.55 µM [inhibitor, full curve]",–
COc1ccccc1-c1nnc(NC(=O)C(C)C)s1,"inconclusive: 28.2 µM [inhibitor, partial curve]",–
O=C(Cn1cc2c(n1)CCCC2)Nc1ccccc1Br,–,inactive: 4.81%
Cc1ccc2[nH]c(=O)c(CN(Cc3ccccc3Cl)C(=O)N3CCOCC3)cc2c1,"inconclusive: 39.8 µM [inhibitor, single point]",–
O=C(O)C(O)c1ccco1 (configuration not stated),–,inactive: 8.9%
COc1ccc(N2CCN(C(=O)/C=C/c3ccco3)CC2)cc1,–,inactive: -18.4%
CC(=O)Nc1cccc(C(=O)NCC2(N3CCCCC3)CCCCC2)c1,"inconclusive: 39.8 µM [inhibitor, single point]",–
Cn1c(=O)c2nc(-c3ccccc3)oc2c2ccccc21,"inconclusive: 31.6 µM [inhibitor, partial curve]",–
O=C(CC1Nc2ccccc2NC1=O)NCCc1ccccc1 (configuration not stated),"inconclusive: 25.1 µM [inhibitor, partial curve]",–
COc1ccccc1CNS(=O)(=O)N(C)C,"inconclusive: 39.8 µM [inhibitor, partial curve]",–
CO/N=C/c1c(-c2ccc(Cl)cc2)nc2cc(C)ccn12,"inconclusive: 22.4 µM [inhibitor, partial curve]",–
Cc1cc(S(=O)(=O)NCc2ccc(N3CCN(C)CC3)cc2)c(C)s1,–,inactive: 6.3%
Cc1nnc2ccc(-c3ccc(NC(=O)c4cccnc4Cl)cc3)nn12,"inconclusive: 28.2 µM [inhibitor, partial curve]",–
O=C(CC1CCS(=O)(=O)C1)NC1CCCCC1 (configuration not stated),–,inactive: 7.44%
CCCCn1c(=NC(=O)c2ccc3c(c2)OCO3)c(C#N)cc2c(=O)n3cccc(C)c3nc21,"inconclusive: 3.16 µM [inhibitor, full curve]",–
CS(=O)(=O)c1ccc(S(=O)CC(=O)Oc2ccc(Cl)cc2)c([N+](=O)[O-])c1 (configuration not stated),active: 3.16 µM,–
COc1cc(/C=C(\C#N)c2nc3ccccc3[nH]2)ccc1Oc1ccc([N+](=O)[O-])cn1,"inconclusive: 31.6 µM [inhibitor, single point]",–
C=COCCNC(=S)N1CCOCCOCCN(C(=S)NCCOC=C)CCOCCOCC1,–,inactive: 11.1%

SMILES,Potency,"activity change, negative = inhibition"
COC(=O)c1ccccc1NC(=O)c1ccc(COc2cccc3ccccc23)o1,"inconclusive: 35.5 µM [inhibitor, single point]",–
Cn1c(CCN2CCCCC2)nc2cc(NC(=O)C3CCCCC3)ccc21,"inconclusive: 22.4 µM [inhibitor, partial curve]",–
CNC(=O)COC(=O)c1cc(-c2ccco2)nc2ccccc12,"inconclusive: 28.2 µM [inhibitor, partial curve]",–
Nc1ccc(-c2ccc3ccccc3n2)cc1,"inconclusive: 28.2 µM [inhibitor, partial curve]",–
c1ccc2c(c1)NC1(CCCCC1)n1c-2nc2ccccc21,"inconclusive: 25.1 µM [inhibitor, partial curve]",–
CCn1c(-c2cc(-c3cc(C)ccc3C)nc3ccccc23)n[nH]c1=S,"inconclusive: 20 µM [inhibitor, single point]",–
COc1ccccc1-c1nnc(NC(=O)c2ccc(S(=O)(=O)N(C)C)cc2)o1,"inconclusive: 39.8 µM [inhibitor, single point]",–
Cc1cc(C(=O)O)ccc1-c1ccc(CO)o1,"inconclusive: 28.2 µM [inhibitor, partial curve]",–
CCOc1ccc(C2=CS/C(=C(\C#N)c3nnc4n3CCCCC4)N2CC)cc1,–,inactive: 6.46%
Nc1ccc2nc(CCCO)[nH]c2c1,–,inactive: -17.3%
Cc1ccsc1C=Nc1ccc(O)cc1,–,inactive: 3.18%
O=C(Cc1ccc(F)cc1)N/N=C/c1ccc(-c2ccc(Cl)c(C(=O)O)c2)o1,"inconclusive: 31.6 µM [inhibitor, partial curve]",–
COc1ccc(CCN(C)C(=O)C2CCCN(Cc3ccc(OC)c(OC)c3)C2)cc1OC (configuration not stated),"inconclusive: 35.5 µM [inhibitor, single point] and inconclusive: 20 µM [inhibitor, single point]",–
CC(=O)OCCn1c2nc(=O)[nH]c(=O)c-2nc2cc(C)c(C)cc21,active: 2.82 µM,–
Cc1cccc(N=Cc2cc(Br)cc(Cl)c2O)c1,–,inactive: -4.88%
Cc1cc(=O)oc2cc(OCc3ccc(C(=O)OCC(=O)NC4CCS(=O)(=O)C4)cc3)ccc12 (configuration not stated),"inconclusive: 3.55 µM [inhibitor, full curve]",–
CCCCC1(C)Nc2ccccc2-c2nc3ccccc3n21 (configuration not stated),"inconclusive: 28.2 µM [inhibitor, partial curve]",–
CCOc1ccc2[nH]c(=O)c(C(c3nnnn3Cc3ccco3)N3CCCC(C)C3)cc2c1 (configuration not stated),"inconclusive: 28.2 µM [inhibitor, partial curve]",–
CCOC(=O)c1sc2cccc(Cl)c2c1N,"inconclusive: 28.2 µM [inhibitor, single point]",–
CCOc1cc(C=C(C(=O)OC)C(=O)OC)ccc1OCc1ccc([N+](=O)[O-])cc1,–,inactive: 2.6%
Cc1nc2ncnn2c(N2CCN(C(=O)Cc3cccs3)CC2)c1C,–,inactive: -5.58%
COc1ccc(Nc2nc(N)nc(CN3CCN(c4ccc(F)cc4)CC3)n2)cc1,–,inactive: 0.378%
O=C(CSc1nc2ncc(Cl)cc2[nH]1)c1ccc2c(c1)OCO2,–,inactive: 2.2%
